This is an account of results in paper PMC4336329 (PLoS ONE, 2015).

The whole screen tested about 310,000 compounds, of which about 14,000 (4.5%) showed an effect of 50% or more. Effects have a minus sign here. The list shows a part of the results.
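Note: peak tail current of the secondary pulse compared with the same well before compound.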

The target in the test is human ether-à-go-go-related gene (hERG) potassium channel (human, UniProt Q12809). Kind of test: primary screen, population patch clamp on CHO cells stably expressing hERG.
Chain of human ether-à-go-go-related gene (hERG) potassium channel (Q12809 whole entry, looked up): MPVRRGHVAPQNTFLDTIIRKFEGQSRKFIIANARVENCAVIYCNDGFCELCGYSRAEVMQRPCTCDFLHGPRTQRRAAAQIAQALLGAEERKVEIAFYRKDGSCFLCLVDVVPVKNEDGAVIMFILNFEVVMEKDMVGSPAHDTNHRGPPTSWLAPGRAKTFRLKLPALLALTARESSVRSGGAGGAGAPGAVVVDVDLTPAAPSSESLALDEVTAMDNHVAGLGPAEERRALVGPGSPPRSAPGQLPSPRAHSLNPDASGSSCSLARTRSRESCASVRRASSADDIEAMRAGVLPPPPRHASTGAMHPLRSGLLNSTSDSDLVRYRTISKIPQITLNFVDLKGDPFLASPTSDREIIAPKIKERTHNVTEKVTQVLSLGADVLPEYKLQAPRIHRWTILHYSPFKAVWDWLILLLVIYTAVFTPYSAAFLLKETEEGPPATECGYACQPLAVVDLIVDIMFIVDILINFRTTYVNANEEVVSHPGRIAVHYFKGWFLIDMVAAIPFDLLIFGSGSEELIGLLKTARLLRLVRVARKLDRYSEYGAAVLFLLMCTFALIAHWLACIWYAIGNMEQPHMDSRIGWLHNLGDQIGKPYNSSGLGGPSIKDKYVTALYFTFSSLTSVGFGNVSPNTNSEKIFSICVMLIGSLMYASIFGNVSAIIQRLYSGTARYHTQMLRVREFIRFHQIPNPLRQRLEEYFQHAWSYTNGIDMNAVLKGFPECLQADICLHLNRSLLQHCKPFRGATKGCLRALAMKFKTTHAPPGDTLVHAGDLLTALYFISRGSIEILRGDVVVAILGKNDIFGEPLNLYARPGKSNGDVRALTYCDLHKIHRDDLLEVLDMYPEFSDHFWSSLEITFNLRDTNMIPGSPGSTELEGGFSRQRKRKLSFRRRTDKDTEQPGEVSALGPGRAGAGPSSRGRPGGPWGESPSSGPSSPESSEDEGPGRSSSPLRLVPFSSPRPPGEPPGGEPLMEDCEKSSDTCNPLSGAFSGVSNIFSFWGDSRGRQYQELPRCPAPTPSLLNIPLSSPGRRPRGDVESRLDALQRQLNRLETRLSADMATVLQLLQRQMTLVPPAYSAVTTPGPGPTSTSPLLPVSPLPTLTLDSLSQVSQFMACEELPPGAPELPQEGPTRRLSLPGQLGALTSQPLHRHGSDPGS
Take `CCOC(=O)C1CCN(Cc2ccc(Cl)c(Cl)c2)CC1`: the “hERG current change (%, negative = inhibition) at 10uM” value is listed as -5.6%.

Consider `CC(Nc1ccc2c(c1)OCCO2)C(=O)Nc1ccc2c(c1)OCO2` (centres unmarked), for which the “hERG current change (%, negative = inhibition) at 10uM” value turned out to be 14.8%. The value for `O=[N+]([O-])c1ccccc1S(=O)(=O)N1CCN(c2ccccn2)CC1` was 2.24%; that for `COc1ccc(CCc2nnc(CCC(=O)NCC3CCCO3)o2)cc1` (centres unmarked) was 2.75%. The value for `NC(=O)c1ccccc1OCC(=O)N1CCc2ccccc2C1` was 8.34%; that for `CCOC(=O)C(C)OC(=O)C1=C(C)NC(=O)NC1c1ccc2c(c1)OCO2` (centres unmarked) was -1.27%; that for `O=S1(=O)OCCC(c2ccccc2)N1Cc1ccccc1` (centres unmarked) was -0.627%. The value for `COc1ccc(NC(=O)CN(C)S(=O)(=O)c2cnc[nH]2)cc1Cl` was 16%; that for `COc1ccccc1NC(=O)CN(Cc1ccco1)C(=O)c1ccc(Cl)nc1` was -28.4%; that for `CC(C)c1ccc(-c2c(C#N)c(N)nc(SCC(=O)N3CCCCCC3)c2C#N)cc1` was 8.56%. With `CCOC(=O)Cc1csc(SCC(=O)Nc2nccs2)n1`, the “hERG current change (%, negative = inhibition) at 10uM” value is -2.46%.

As for `O=C(NCc1cccnc1)c1ccc(Br)s1`, the “hERG current change (%, negative = inhibition) at 10uM” value is recorded as -16.9%. On to `O=C(NCCc1ccccc1)c1ccc2c(=O)[nH]c3c(C(=O)NCC4CCCO4)sc(=S)n3c2c1` (centres unmarked), for which the “hERG current change (%, negative = inhibition) at 10uM” value was determined as 16.5%.

As for `Cc1c(Cl)c(C(F)(F)F)nn1CC(=O)N1CCSCC1`, the “hERG current change (%, negative = inhibition) at 10uM” value is 4.35%.

`CCC(=O)NC(=S)Nc1cccc(NC(=O)c2ccccc2C)c1`: the “hERG current change (%, negative = inhibition) at 10uM” value came to 29.6%.

`COC(=O)c1ccc(NC(=O)CSc2nnc(C)n2CC2CCCO2)cc1` (centres unmarked): the “hERG current change (%, negative = inhibition) at 10uM” value stood at 2%. Next, `CC(C)c1ccc(S(=O)(=O)NC2CCCC2)cc1`: 3.12%. Next, `CCCC(=O)NCc1ccncc1`: 14.5%; `CCCc1cc(=O)oc2cc(C)cc(OCC(=O)Nc3ccc(CN4CCOCC4)cc3)c12`: 9.83%; `Cc1cccn2c(=O)c3cc(C#N)c(=NC(=O)c4ccccc4)n(Cc4ccco4)c3nc12`: -40.3%. The value for `CC(=O)c1ccc(N2CCN(C(=S)Nc3ccccc3F)CC2)cc1` was 8.93%; that for `Cc1ccc(S(=O)(=O)NCCCCCC(N)=O)cc1` was 3.91%. On to `CN(C)c1cccc(C(=O)NCc2ccc(Cl)cc2)c1`, for which the “hERG current change (%, negative = inhibition) at 10uM” value is -8.25%.

As for `CCc1ccc(NC(=S)N2CCC(NC(=O)c3ccccc3OC)CC2)cc1`, the “hERG current change (%, negative = inhibition) at 10uM” value is listed as -18.5%. Regarding `O=C(CCCn1c(=O)oc2ccccc21)N1CCc2ccccc2C1`, the “hERG current change (%, negative = inhibition) at 10uM” value is on record as -30.6%. Next, `CC1(C)CC(=O)c2cc(OCC(=O)NCCN3CCCc4ccccc43)ccc2O1`: -47.5%.
